# Experimental data as given in PubChem BioAssay AID504832 (National Center for Advancing Translational Sciences (NCATS), 2011).
# Hit rate of the full screen: of about 310,000 compounds, about 18,000 (5.8%) were called active. This list was built around the results that the source calls inconclusive (neither active nor inactive); the mix of calls is not that of the screen. Calls follow the shape of the dose curve; as a rule, active = well fitted inhibition curve with a large enough effect; inconclusive = small, poorly fitted or top-dose-only effect, or another doubt; inactive = no such curve, though single readings can be large or run the other way. Potencies of inconclusive entries are left out as doubtful fits.
# Experiment: Primary qHTS for delayed death inhibitors of the malarial parasite plastid, 48 hour incubation
# Conditions: P. falciparum luciferase growth in erythrocytes; series mostly up to 28.7 µM
# Outline: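 Luminescence readout; reporter = integrated firefly luciferase in P. falciparum. RBC culture at 2% hematocrit, 0.1% parasitemia final, 37 C/5% CO2; decreased signal taken as growth inhibition.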
# Potency is read from the fitted curve at half-maximal effect; tags tell the direction and shape of the fitted curve.
row,SMILES,Potency
1,O=C(CCC1CCCCC1)NCCN1C2=NC[C@H](Cc3ccccc3)N2C[C@H]1Cc1ccc(O)cc1,"inconclusive [inhibitor, partial curve]"
2,CC(=O)Nc1ccc(/C=N\NC(=O)CNS(=O)(=O)c2ccc([N+](=O)[O-])cc2)cc1,"inconclusive [inhibitor, partial curve, poor fit]"
3,CCOC(=O)c1ccccc1NC(=O)c1ccc2nccnc2c1,"inconclusive [inhibitor, full curve, poor fit]"
4,CCN(c1ccccc1)S(=O)(=O)c1ccc(C(=O)N(C)CCc2ccc(OC)c(OC)c2)cc1,"inconclusive [inhibitor, partial curve]"
5,COc1ccc(-c2cc(C(F)(F)F)nc(NC3CCCC3)n2)cc1OC,active: 14.7 µM
6,COc1ccc(NC(=S)/N=C(\N)Nc2nc(C)c3ccccc3n2)cc1,"inconclusive [inhibitor, partial curve]"
7,C[C@@H](NC(=O)c1[nH]cnc1C(=O)Nc1ccc(Cl)cc1)c1ccccc1,"inconclusive [inhibitor, single point]"
8,O=c1c2cc(N3CCOCC3)ccc2[nH]c(=S)n1CCCN1CCCCCC1,"inconclusive [inhibitor, single point]"
9,CNC(=O)CN1C(=O)c2cccc3cccc1c23,inactive
10,COc1ccc(-c2cc(C(=O)NCC(c3ccco3)N(C)C)c3ccccc3n2)cc1OC (stereo not drawn),"inconclusive [inhibitor, partial curve, poor fit]"
11,COc1ccc(CNS(=O)(=O)c2cc(-c3cc(C)no3)ccc2C(C)C)cc1,"inconclusive [inhibitor, single point]"
12,COc1ccc(N2CCN(C3CCCN(C(=O)c4ccoc4)C3)CC2)cc1 (stereo not drawn),"inconclusive [inhibitor, partial curve, poor fit]"
13,CCS(=O)c1ccccc1C(=O)OCC(=O)Nc1cccc(S(=O)(=O)N2CCCCC2)c1 (stereo not drawn),inactive
14,O=[N+]([O-])c1ccc(-c2ccc(/C=N/Nc3nc(N4CCCC4)nc(N4CCCC4)n3)o2)cc1,"inconclusive [inhibitor, full curve]"
15,Cc1ccc(C)c(NC(=O)CSc2ccc(-c3ccco3)nn2)c1,inactive
16,CN1C(=O)N(CC(=O)NCc2ccc(Cl)cc2Cl)C(=O)C12CCCCC2,"inconclusive [inhibitor, partial curve]"
17,CC[C@H]1OC(=O)[C@H](C)[C@@H](O[C@H]2C[C@@](C)(OC)[C@@H](O)[C@H](C)O2)[C@H](C)[C@@H](O[C@@H]2O[C@H](C)C[C@H](N(C)C)[C@H]2O)[C@](C)(O)C[C@@H](C)CN(C)[C@H](C)[C@@H](O)[C@]1(C)O,active: 13.5 µM
18,COc1ccc(CC(=O)Nc2ccc(C)cc2O)cc1S(=O)(=O)N1CCOCC1,"inconclusive [inhibitor, single point]"
19,Cc1ccc(OCC(=O)c2cc(C)n(CC(F)(F)F)c2C)c([N+](=O)[O-])n1,inactive

row,SMILES,Potency
1,CC1CCc2nc(NC(=O)c3ccc(N4C(=O)CCC4=O)cc3)sc2C1 (stereo not drawn),"inconclusive [inhibitor, single point]"
2,CCOc1ccccc1NC(=O)c1cccc(NC2=NC3CS(=O)(=O)CC3S2)c1 (stereo not drawn),"inconclusive [inhibitor, partial curve, poor fit]"
3,O=C(NNS(=O)(=O)c1ccccc1)c1cc2cc3ccccc3nc2s1,"inconclusive [inhibitor, single point]"
4,COc1ccc(-n2cnc3cc(C(=O)NCCN4CCOCC4)ccc32)cc1,"inconclusive [inhibitor, single point]"
5,COc1cccc(OC)c1OCc1cc(C2C3CCCC=C3C(C#N)=C(N)C2(C#N)C#N)c(C)cc1C (stereo not drawn),"inconclusive [inhibitor, full curve, poor fit]"
6,CCn1c(SC)nnc1-c1sc2cc(Cl)ccc2c1Cl,"inconclusive [inhibitor, single point]"
7,COc1ccc(C(C)=O)cc1COc1ccc(Cl)c(C)c1,inactive
8,COc1ccc(C(=O)c2c[nH]c(C(=O)NCC3CCCO3)c2)cc1 (stereo not drawn),inactive
9,CCOc1ccccc1NC(=O)C(OC(=O)c1ccc(N(C)C)cc1)c1ccccc1 (stereo not drawn),"inconclusive [inhibitor, single point]"
10,CCCCn1c(N)c(N(CCC(C)C)C(=O)C2CC(=O)N(c3cccc(SC)c3)C2)c(=O)[nH]c1=O (stereo not drawn),"inconclusive [inhibitor, single point]"
11,O=C(Nc1ccc(S(=O)(=O)N2CCC(C(=O)NC3CCCCC3)CC2)cc1)c1ccco1,"inconclusive [inhibitor, single point]"
12,O=C(c1ccc2c(c1)N(Cc1ccccc1)CCS2)N1CCC2(CC1)OCCO2,"inconclusive [inhibitor, single point]"
13,COc1nc(-c2cnccn2)sc1C,"inconclusive [inhibitor, single point]"
14,S=C(NCCc1ccccc1)Nc1ccccc1Cl,"inconclusive [inhibitor, single point]"
15,CC(C)C(=O)N1CCN(c2ccccc2NC(=O)c2cc([N+](=O)[O-])ccc2N2CCOCC2)CC1,"inconclusive [inhibitor, partial curve]"
16,COc1ccc(CCC(=O)Nc2nc(C)c(C(=O)N(C)C)s2)cc1,active: 7.38 µM
17,CCN(CC(=O)Nc1c(F)cccc1F)C(=O)c1cc(S(=O)(=O)NCc2ccccc2)ccc1C,"inconclusive [inhibitor, single point]"
18,Nc1nnc(SCC(=O)N2CCc3ccccc3C2)s1,"inconclusive [inhibitor, partial curve, poor fit]"
19,O=C(c1ccc(CNc2c(N3CCCC3)c(=O)c2=O)cc1)N1CC=C(c2ccccc2)CC1,"inconclusive [inhibitor, partial curve, poor fit]"
